# The supplement of paper PMC11417369
# The list shows a part of the results.
# Test system: PfSIP2 AP2 domain 1 (GST-tagged)
# Assay: gcPBM binding intensity (ln(normalized median fluorescence intensity)); higher = stronger DNA binding
# In short: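 An Agilent 4 × 180k array of primer-extended double-stranded 36-bp intergenic genomic probes, with negative controls, was incubated for 1 h with GST-tagged P. falciparum DNA-binding domains expressed in E. coli. Alexa488 anti-GST antibody detected bound protein, scanned at 488 nm. Binding intensity is the highest Masliner-normalised natural-log median intensity across replicate spots of either probe orientation.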
row,Sequence,gcPBM binding intensity (ln)
1,AAAAAAAAGAAATAGACACACATATATTTTTAAACA [CACACA_site3954],6.71
2,TTTTTTTCTTAAAGATGTACTTTTTAAAAACAATCT [XGTACX_site986],6.83
3,CATTTTATAAAAACAAGTACCCAACATATATATAAT [XGTACX_site5955],7.23
4,AGACATATTCTTTTTACACACTTGAATAAAAAATAT [CACACA_site1205],6.99
5,GATGAGGACAGACACACACACATAAGTTGATACATA [CACACA_site7580],7.17
6,GTTTTTACTTTTATCTGTACATAATACTACCAATAT [XGTACX_site5414],7.32
7,CACGCGCACCAACACACACACACACCCATATATATA [CACACA_site2204],10.6
8,GTTGGGTAATTCGTAACACACATAAAATATATATAA [CACACA_site3986],7
9,CTGTACACTTAAACGGTGCAAAAAGAAAAAAAAGAA,10.9
10,TGCCTATGACATGAATGTACATTAAAATTAAATAAA [XGTACX_site7126],6.96
11,ACAGCTCTAGGACATGCATGTTATATAGAAAAAGAG [TGCATGCA_site703],7.43
12,AAGTTAATGTTTTGCGCACACTTCTTTTTAATATAA [CACACA_site3938],7.39
13,TTCTTTATATAAACAAGTACATATAAAATACATATA [XGTACX_site8036],7.02
14,AAATACATATTTAGAAGTACATTTATACATTTAATA [XGTACX_site8871],7.04
15,TTCATTAAAGTTATTACACACAGTTCTTCAACCAAA [CACACA_site7613],6.88
16,TATATATTAAGATGCACACACAAGAAGTAATTATAA [CACACA_site5726],8.21
17,ATTTTTTCTTATAAAAAAGAAAAAGAAAAAGAAAAA [CACACA_negctrl_site1216],7.09
18,TAAATATATAAATACACACACACCAAAGCAATAGAT [CACACA_site5605],7.04
19,TCCATATGCATGTATTGTACTGTAATATATTAAAAA [XGTACX_site472],7.12
20,AAAAAAAAAAAAGAAACACACACATATATATATATA [CACACA_site8525],9.36
21,AGCAGTCGACAGGACAGTACACAGTAGCCAGGAAAT [XGTACX_site4929],6.62
22,TGAATATAACAAATATGTACTTAAAATTGTTATATT [XGTACX_site5679],6.95

row,Sequence,gcPBM binding intensity (ln)
1,CACACTTGCTCCTGTTGTACATAACCATAAGCAACA [XGTACX_site2102],7.36
2,ATTATTAAAAATATGGGTACATATTATTGTTATATA [XGTACX_site1958],6.89
3,TTATATTTTACAAATGCACACATAATTTTTTTTTTT [CACACA_site8890],7.16
4,AAAAAAAAAAAAAAATGTACATGACATGACATGACA [XGTACX_site4020],7.31
5,TAAAGAAATAAATACATACACACATATATATATATA [CACACA_site3363],9.69
6,AAACTTTACATTACTTGTACATATATTCTATATAAT [XGTACX_site8640],7.26
7,TTTGATAATAAGATATAATACTTAAATATATATATA [GTGCAC_negctrl_site339],8.85
8,AAATATATATTCAAAAGTACACAATTTGTTAATAAT [XGTACX_site8917],7
9,TATTTTACGCGGTTTATAATGACATGTTCTATATTT [CACACA_negctrl_site1184],6.94
10,AGCCCTTTTTTTTTTTAGAATATTGCATAATTATAT [XGTACX_negctrl_site546],7.24
11,TATATAAATATATCCACACACATACCTATATTAATA [CACACA_site6184],7.17
12,GTATTGTATGGATGGGGTACTATATATATATATTTT [XGTACX_site1694],7.58
13,TTATAATTAAATTTCACACAGTTCATAACATAATTA [CACACA_site5501],6.97
14,TAAGGGAGAGATTTGTATCATAAGCAACTTTCAAAA [CACACA_negctrl_site1436],6.82
15,TTTATATGTTTTAAGTGTACACATATAATGTATTTT [XGTACX_site3069],7.09
16,ACTTTCAACATGAAGTTGCACTTTTTTTTTTTTCTT,8.11
17,TAATTAAATAAAAAAAAATATATATATATATATATA [XGTACX_negctrl_site616],9.93
18,TTTTTTAAAAATAACTGTACAGAGGCTGTTAGGATA [XGTACX_site2521],7.32
19,AGACAATATTAATAAGGTACACATATATATTAAAAA [XGTACX_site6709],7.08
20,ATATGTCCATATAGTAAATGTTACATTTTAAAGCGC [XGTACX_negctrl_site168],6.84
21,CATATTTTGTGAAAAAGTACATATATATATATATAT [XGTACX_site6295],9.34
22,AAAATATTTATTTTTTGTACACATAAAAACGCACTT [XGTACX_site4132],8.15
